Assay results reported in a compilation of properties of binary mixtures (doi:10.1039/c5cp02799c).
The densities may have been worked out from excess volumes.

Assay: xn = mol fraction of the nth substance listed
Settings: 101.3 kPa

CCCCC[P+](CC)(CC)CC.O=S(=O)([N-]S(=O)(=O)C(F)(F)F)C(F)(F)F + O=S(=O)([N-]S(=O)(=O)C(F)(F)F)C(F)(F)F.[Li+]
mass density [kg/m3]
Settings	x2 = 0.25	x2 = 0.39
298 K	1380	–
298.2 K	–	1450
300.1 K	1378	–
300.2 K	–	1448
306 K	1373	–
306.2 K	–	1442
312.1 K	1367	1436
318 K	1362	–
318.2 K	–	1430
324.1 K	1356	–
330 K	1350	–
336 K	1346	–
336.1 K	–	1412
341 K	1341	–
341.2 K	–	1407
348 K	1335	–
348.1 K	–	1400
355 K	1328	–
361 K	1323	–
361.1 K	–	1388
374 K	1312	–

CC[P+](CC)(CC)CCOC.O=S(=O)([N-]S(=O)(=O)C(F)(F)F)C(F)(F)F + O=S(=O)([N-]S(=O)(=O)C(F)(F)F)C(F)(F)F.[Li+]
mass density [kg/m3]
Settings	x2 = 0.25	x2 = 0.39
297.8 K	1449	–
297.9 K	–	1502
299.9 K	–	1500
300 K	1446	–
305.9 K	1441	1494
311.9 K	1434	1488
317.9 K	–	1481
323.9 K	–	1475
324 K	1423	–
329.9 K	1418	1469
335.8 K	–	1464
335.9 K	1412	–
340.9 K	–	1459
347.8 K	–	1451
354.8 K	–	1445
360.7 K	–	1439
360.8 K	1389	–
373.7 K	–	1426
